Reference: the supplement of paper PMC3334620
Whole data set: some 33,000 sequences, median “E-score (-0.5 to 0.5)” near -0.043, cut for the highest 2% near 0.37. The list shows a part of the results.

target: T1, Upc2 (UniProt Q12151); experiment: PBM E-score (8-mer binding enrichment) (E-score (-0.5 to 0.5)); higher = stronger / more preferred TF binding; most listed sequences are background and not binding sites; details: protein concentration: 200 nM; construct: GST-full length
T1 sequence: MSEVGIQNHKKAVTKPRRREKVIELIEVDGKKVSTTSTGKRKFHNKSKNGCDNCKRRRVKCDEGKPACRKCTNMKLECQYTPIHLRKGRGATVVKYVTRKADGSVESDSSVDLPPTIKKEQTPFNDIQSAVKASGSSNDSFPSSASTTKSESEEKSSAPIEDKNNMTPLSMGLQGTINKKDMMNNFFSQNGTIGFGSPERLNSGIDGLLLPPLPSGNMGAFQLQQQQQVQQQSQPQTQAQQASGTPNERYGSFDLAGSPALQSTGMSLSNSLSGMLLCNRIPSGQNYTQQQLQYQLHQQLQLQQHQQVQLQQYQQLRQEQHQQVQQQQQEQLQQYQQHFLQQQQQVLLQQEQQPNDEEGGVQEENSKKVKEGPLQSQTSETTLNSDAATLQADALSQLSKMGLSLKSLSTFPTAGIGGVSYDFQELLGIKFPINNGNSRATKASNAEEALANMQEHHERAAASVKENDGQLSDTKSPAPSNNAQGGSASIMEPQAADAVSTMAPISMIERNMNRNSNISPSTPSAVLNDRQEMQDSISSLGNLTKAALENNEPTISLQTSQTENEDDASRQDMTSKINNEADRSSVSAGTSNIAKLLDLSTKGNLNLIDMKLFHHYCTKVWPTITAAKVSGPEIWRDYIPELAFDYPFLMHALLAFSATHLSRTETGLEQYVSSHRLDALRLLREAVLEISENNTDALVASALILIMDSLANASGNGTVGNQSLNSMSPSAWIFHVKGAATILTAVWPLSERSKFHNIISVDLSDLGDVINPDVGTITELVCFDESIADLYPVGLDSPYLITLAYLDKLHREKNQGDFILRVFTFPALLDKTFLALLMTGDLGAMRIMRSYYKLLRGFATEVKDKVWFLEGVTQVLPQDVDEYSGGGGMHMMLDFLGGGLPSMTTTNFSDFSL
Experimental: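 Universal 'all 10-mer' protein binding microarrays (Agilent AMADID 015681) probed with GST-tagged S. cerevisiae TFs (full-length or DBD) made by in vitro transcription/translation (PURExpress), about 100-200 nM. Bound TF was detected with fluorescent anti-GST. Each ungapped 8-mer (which stands for itself and its reverse complement) is scored by the PBM enrichment score (E-score), a modified Wilcoxon-Mann-Whitney statistic from -0.5 to +0.5, computed with the Universal PBM Analysis Suite. Scale: above 0.35 generally sequence-specific binding.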

| Sequence | PBM E-score |
| --- | --- |
| ATACTTCC | -0.0854 |
| CCTCTAGA | -0.103 |
| ATACTTGC | -0.0735 |
| GCGAGTAC | 0.204 |
| AGTCAGCA | -0.16 |
| ACAGGGGA | -0.12 |
| CCTTGTCC | -0.205 |
| TACGTGGA | 0.189 |
| CGTTGAAG | 0.186 |
| CTCTGCTC | -0.214 |
| AGCTTAAT | 0.0773 |
| ATACCCTG | 0.00625 |
| AGAATAAG | -0.128 |
| GCCATCTA | -0.299 |
| CCTGTAGA | -0.136 |
| AGATCAAA | -0.104 |
| CTAAGCCA | -0.28 |
| CTGAGTAA | -0.265 |
| ATAATAAC | 0.103 |
| ACTCCACG | 0.0814 |
| AAATGAAG | 0.102 |
| AACGCGCA | 0.0842 |
| ACTGCTGA | -0.176 |
| ACAAACCA | -0.183 |
| AGTTGGAC | -0.148 |

| Sequence | PBM E-score |
| --- | --- |
| CTCCTTGA | -0.347 |
| ACCAAGCT | -0.0663 |
| CATGTTGG | -0.0749 |
| GGCAATCA | -0.196 |
| CACCAGGG | -0.261 |
| ACGAGTAT | 0.376 |
| AGTCCCAG | -0.0172 |
| AAAAAATT | 0.0974 |
| CCGTTAAC | 0.298 |
| GGGCCGCA | -0.0995 |
| CCTGGTGC | -0.16 |
| GCGGAGGA | -0.187 |
| AAACGGAA | 0.36 |
| ACGCGTGG | 0.0348 |
| CCAGACGC | -0.196 |
| CAACTAAC | 0.0136 |
| CCTATGGA | -0.264 |
| ATGTGTAC | 0.216 |
| ATGAGCTG | -0.187 |
| AGCACTAC | -0.182 |
| ACCCTGCG | -0.145 |
| AAGTGCCT | -0.168 |
| CAACCGGC | -0.159 |
| ATTAGCTA | -0.0268 |
| ATTCGCCC | -0.215 |

| Sequence | PBM E-score |
| --- | --- |
| ATAGCGCC | -0.111 |
| CAAGCAGA | -0.0226 |
| AACCTAAC | -0.0536 |
| AAGGTGGG | -0.181 |
| TGCCCAAA | -0.181 |
| CCAGATAA | -0.0256 |
| GGCATTTA | -0.274 |
| CTGTGGCC | -0.212 |
| AGCTGTTC | -0.133 |
| AAACAGGT | -0.0304 |
| CAATTAAG | -0.014 |
| GACCGTGA | -0.166 |
| AAAGCAAA | 0.0651 |
| CACCCATC | -0.0809 |
| CTATAAAG | -0.2 |
| GATTTGCC | 0.00332 |
| TCAACTCA | -0.155 |
| GAGCCAAA | -0.162 |
| AATCAGGT | -0.0117 |
| AATCTCCC | -0.169 |
| AAGTTCAA | 0.0109 |
| AGCTACCA | -0.126 |
| AGTTTGGA | -0.014 |
| AAAATATA | 0.0385 |
| ATGCAAGG | -0.11 |

| Sequence | PBM E-score |
| --- | --- |
| CCCTTTGA | -0.304 |
| GCCGCACA | -0.0824 |
| ATATAACC | 0.118 |
| AAACCTAG | -0.0476 |
| GCAGCCCA | -0.13 |
| TAGGGACA | -0.217 |
| GGAAGAAA | -0.136 |
| AAGAAGGG | -0.0551 |
| GCCAGGAC | -0.212 |
| AATACGAA | 0.424 |
| CATTTAGC | -0.0255 |
| GTAGAAGA | -0.0124 |
| CCGCCCTA | -0.266 |
| GAAGAGAC | 0.031 |
| AACAGCTA | -0.193 |
| CACAACCC | -0.0428 |
| AGCGTGCG | 0.0869 |
| CCATATAA | 0.144 |
| ACGCCGAT | -0.0392 |
| AGCCAACT | -0.272 |
| GAGCGTAA | 0.185 |
| GGAAGACC | -0.169 |
| AACTGATT | -0.0765 |
| CACATAAG | -0.00689 |
| GCAAAGGC | -0.0992 |

| Sequence | PBM E-score |
| --- | --- |
| CACCGGGA | -0.188 |
| AGTATACT | 0.242 |
| ATTAGAAA | 0.0638 |
| TAATGATA | 0.171 |
| GGTGCCAC | -0.162 |
| AAAATGAT | 0.0942 |
| CTTTCCCA | -0.288 |
| ACGCTCTA | -0.0572 |
| CGCTGCGA | 0.0835 |
| AGCGTAAC | 0.219 |
| GACGAGTC | 0.0657 |
| CCGTTACG | 0.36 |
| AAAGTTGG | -0.137 |
| AATCTGCT | -0.138 |
| AGGTTGCC | -0.356 |
| AGGCACCT | -0.367 |
| CCTGGCCC | -0.203 |
| CTCAATCA | -0.153 |
| ACGTAACG | 0.268 |
| CTAAGTAA | -0.0347 |
| AGCGCAAG | -0.129 |
| CTCCGTCA | -0.233 |
| AGTGGGTC | -0.234 |
| ACTAATAT | 0.0386 |
| AACGCAAC | 0.141 |

| Sequence | PBM E-score |
| --- | --- |
| ATCGGTCG | 0.197 |
| GGTCTACA | -0.222 |
| AAAGCTCG | 0.209 |
| GTAAATGA | 0.146 |
| ATTCGGAC | 0.0896 |
| GGCACCAA | -0.0665 |
| GATGTAGA | -0.229 |
| ACATGAAA | -0.111 |
| CATATGGC | 0.0724 |
| CAGATGGC | -0.0004 |
| GGTCACTA | -0.113 |
| GTTGGTGA | 0.101 |
| ATTTGAGG | -0.127 |
| AATTACAT | 0.163 |
| CGGGACAA | -0.166 |
| AAATGTGC | 0.0298 |
| TGCGACCA | 0.0986 |
| GGCTCCGA | -0.194 |
| CAGGGAAC | 0.0954 |
| AAGAACCA | 0.132 |
| AATACGCT | 0.212 |
| AATTCAGT | -0.199 |
| AGCCAAAG | -0.193 |
| CGTGCAGA | 0.0495 |
| CCGTGTGA | -0.0414 |

| Sequence | PBM E-score |
| --- | --- |
| TCTCGGAA | 0.098 |
| AATTAAGG | -0.174 |
| CATTCGAG | 0.0954 |
| GTCGATAA | -0.0403 |
| AGATGGAC | -0.0857 |
| AAAGAAGT | -0.0114 |
| ACTGAGCA | -0.0623 |
| CAACTTGA | -0.046 |
| ATGGGGGA | -0.191 |
| GACTCATC | -0.154 |
| CAGGTGCC | -0.347 |
| ACGCACGG | 0.0208 |
| ATTCGGTA | 0.211 |
| AAACCTAA | 0.057 |
| ACAGGAAG | -0.188 |
| GAAGAACA | -0.132 |
| GAAGATTA | -0.101 |
| AACGAATT | 0.378 |
| TCATCACA | -0.0744 |
| ACACAGCT | -0.0599 |
| TAGGTGCA | -0.194 |
| CCAACAAA | 0.0592 |
| CATTGCAG | -0.141 |
| CGACGGTA | 0.238 |
| AGTTGACC | -0.0877 |

| Sequence | PBM E-score |
| --- | --- |
| CCAGAGAC | -0.123 |
| GATTTCTA | -0.0152 |
| GCTAACCC | -0.121 |
| CCCAGCAA | 0.0851 |
| ATAGCTAG | -0.148 |
| CGAGAGGA | 0.171 |
| GTCAAGGA | -0.262 |
| CAACGCTA | -0.198 |
| CTTTGGGC | -0.215 |
| CGCAACCA | -0.126 |
| ACGAATGG | 0.259 |
| AATGCGCT | -0.0343 |
| GATGAGCC | -0.124 |
| CACGGGTC | -0.082 |
| CGCCCCTC | -0.0285 |
| GGATTCCA | -0.0552 |
| GACGGTAC | 0.201 |
| CACCATGA | -0.165 |
| ATCACATA | 0.133 |
| CAGATCTA | -0.104 |
| ATGCAACG | 0.113 |
| AGGTATGA | -0.0712 |
| ACAACGTC | 0.0186 |
| GGCTTCCA | -0.329 |
| ATGATAAC | 0.0913 |

| Sequence | PBM E-score |
| --- | --- |
| CCGCTTTA | 0.127 |
| GCCCGAAA | 0.191 |
| ATAGATTA | 0.0552 |
| CATCGCAG | -0.104 |
| GCCGTCCA | -0.146 |
| AGACGCTG | -0.221 |
| GGGTGTTA | -0.16 |
| ATGACCGC | -0.213 |
| CTTTCCGA | 0.00625 |
| CGCGAACA | 0.142 |
| AATTGCTC | -0.122 |
| ACTGATCA | -0.157 |
| CACATTCG | 0.188 |
| ATTACCGA | 0.182 |
| AGTCCACG | -0.0933 |
| ATCGGTGA | 0.0867 |
| AGATTATC | -0.102 |
| AATGCTCA | -0.187 |
| CCGTTATC | -0.0315 |
